The results in this text go back to paper PMC4336329 (PLoS ONE, 2015).

Molecules are shown by their SMILES. The whole screen tested about 310,000 compounds, of which about 2,200 (0.71%) showed an effect of 50% or more. Effects have a minus sign here. This is one part of the list.

In the assay the target is human ether-à-go-go-related gene (hERG) potassium channel (human, UniProt Q12809). As to the kind of experiment: primary screen, population patch clamp on CHO cells stably expressing hERG.
Chain of human ether-à-go-go-related gene (hERG) potassium channel (Q12809 whole entry, looked up): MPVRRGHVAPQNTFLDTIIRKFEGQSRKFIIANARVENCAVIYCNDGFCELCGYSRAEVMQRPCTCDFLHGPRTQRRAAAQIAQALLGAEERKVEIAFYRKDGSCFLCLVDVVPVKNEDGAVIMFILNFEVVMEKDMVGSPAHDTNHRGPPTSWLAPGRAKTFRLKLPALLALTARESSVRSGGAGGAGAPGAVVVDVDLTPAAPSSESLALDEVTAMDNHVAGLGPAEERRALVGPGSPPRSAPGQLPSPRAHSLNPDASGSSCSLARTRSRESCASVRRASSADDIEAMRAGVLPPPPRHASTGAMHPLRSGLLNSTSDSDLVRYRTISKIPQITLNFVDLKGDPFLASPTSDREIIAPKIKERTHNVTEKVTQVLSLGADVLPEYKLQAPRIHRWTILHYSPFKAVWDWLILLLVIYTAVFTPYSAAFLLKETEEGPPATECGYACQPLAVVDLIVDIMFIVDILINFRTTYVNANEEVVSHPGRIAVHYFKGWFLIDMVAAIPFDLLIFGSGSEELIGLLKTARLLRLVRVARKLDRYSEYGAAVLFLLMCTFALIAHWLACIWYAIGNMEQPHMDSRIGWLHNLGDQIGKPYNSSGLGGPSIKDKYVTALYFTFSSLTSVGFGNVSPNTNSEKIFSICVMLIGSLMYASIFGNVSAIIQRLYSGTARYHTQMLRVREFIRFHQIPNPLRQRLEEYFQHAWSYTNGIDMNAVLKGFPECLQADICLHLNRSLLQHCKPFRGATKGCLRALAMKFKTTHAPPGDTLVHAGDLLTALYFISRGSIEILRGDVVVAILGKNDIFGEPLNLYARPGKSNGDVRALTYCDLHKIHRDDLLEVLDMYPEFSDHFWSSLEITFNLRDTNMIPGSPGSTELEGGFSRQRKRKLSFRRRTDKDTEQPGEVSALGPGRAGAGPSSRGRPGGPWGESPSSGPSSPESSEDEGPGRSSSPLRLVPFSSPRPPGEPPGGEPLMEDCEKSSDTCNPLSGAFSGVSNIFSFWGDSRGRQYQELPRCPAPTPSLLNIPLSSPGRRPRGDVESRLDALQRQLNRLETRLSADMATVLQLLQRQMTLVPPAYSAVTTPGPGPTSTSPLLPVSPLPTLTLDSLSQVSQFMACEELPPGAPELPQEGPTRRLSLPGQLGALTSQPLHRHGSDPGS
For the compound `Nc1ccc(C(=O)OCc2ccncc2)cc1[N+](=O)[O-]`, the “hERG current change (%, negative = inhibition) at 1uM” value is -1.23%.
The figure for `O=c1oc(-c2ccccc2)cc(Cl)c1Cl` is 0.467%.
Then `CC(OC(=O)c1ccncc1)C(=O)Nc1cccc(Cl)c1` (stereo not drawn), with 3.81%.
The figure for `CC1(C)Oc2ccc(C(=O)Nc3ccccc3F)cc2N(CC(=O)N2CCOCC2)C1=O` is 10.6%; for `Cn1cc(/C=C2\SC(=O)N(c3ccccc3)C2=O)c2ccccc21` it is 8.84%.
Consider `CCOC(=O)c1nn(-c2ccccc2C)c(=O)cc1OCC(=O)N1CCN(c2ccccc2)CC1`, for which the “hERG current change (%, negative = inhibition) at 1uM” value was 10%.
Then `CCOc1ccc(-n2c(SCC(=O)Nc3cc(C)on3)nc3c(c2=O)SCC3)cc1`, with 14.6%; and `N#CCCn1c(SCC(=O)c2c[nH]c3ccccc23)nc2ccccc21`, with 7.16%.
As for `CC(OC(=O)CNC(=O)C12CC3CC(CC(C3)C1)C2)C(=O)Nc1ncc(Cl)cc1Cl` (stereo not drawn), the “hERG current change (%, negative = inhibition) at 1uM” value is on record as 2.78%.
As for `CC(O)CCc1nc2ccc(C(=O)O)cc2[nH]1.Cl` (stereo not drawn), the “hERG current change (%, negative = inhibition) at 1uM” value was 14.9%.
Then `CC1=NN(c2ccccc2)C(=O)/C1=C/C=C/c1ccccc1`, with 5.79%.
For `Cc1[nH]c(C)c(S(=O)(=O)N(Cc2ccccc2)C(C)(C)C)c1C(=O)N1CCCC1`, the “hERG current change (%, negative = inhibition) at 1uM” value stood at 5.26%.
Then `CC(=O)Nc1nc2c(c3c1c(=O)oc1ccccc13)CCCCC2`, with -1.87%; and `O=C(CSc1nnnn1-c1ccccc1)Nc1ncc(Cc2cccc(Cl)c2Cl)s1`, with 16%.
For the compound `C=CCOC(=O)C1=C(C)NC(C)=C(C(=O)OCC=C)C1c1ccc(O)cc1`, the “hERG current change (%, negative = inhibition) at 1uM” value is on record as -1.12%.
The figure for `O=[n+]1c2c(n([O-])c3c1CCC3)CCCC2` is 13.5%; for `CCOC(=O)C(CC)Sc1nnc2c3cc(C)ccc3n(C)c2n1` (stereo not drawn) it is 4.1%.
The figure for `O=C(CSc1nnc(COc2ccccc2)o1)N1CCCC1` is 5.08%.
For `O=C(NCc1cccs1)C1CCN(S(=O)(=O)c2ccc(Cl)cc2)CC1`, the “hERG current change (%, negative = inhibition) at 1uM” value is 23.3%.
Then `Cc1cccc(N(C(=O)c2snc(C(N)=O)c2N)C(C(=O)NC2CCCC2)c2ccc(C)o2)c1` (stereo not drawn), with 7.28%.
For `CCOC(=O)c1sc(=NC(=O)c2cc(OC)c(OC)c(OC)c2)n(C)c1C`, the “hERG current change (%, negative = inhibition) at 1uM” value worked out at 11.4%.
Then `O=C(NCc1ccc(F)cc1)C1CC(=O)N(Cc2ccco2)C1` (stereo not drawn), with -2.73%; and `N#CNC(=Nc1ccccc1)SCc1ccc(C(=O)O)cc1`, with 7.67%; and `CSc1nc(Oc2cccc(C(F)(F)F)c2)cc(C(F)(F)F)n1`, with 9.99%.
Then `COc1cccc(C(=O)N2CCOCC2)c1`, with 20.5%.
The figure for `COc1ccc(S(=O)(=O)NCC(c2cccnc2)N2CCN(C)CC2)cc1C` (stereo not drawn) is -24.4%; for `Cc1cc(Cl)ccc1NC(=O)C1COc2ccccc2O1` (stereo not drawn) it is 8.71%; for `CC(=O)NC1CC2CCCC(C1)N2S(=O)(=O)c1ccccc1` (stereo not drawn) it is 14.7%.
On to `CCOC(=O)CNC(=S)SC`, for which the “hERG current change (%, negative = inhibition) at 1uM” value turned out to be 7.2%.
Then `CC(Sc1nnc(CNC(=O)c2ccccc2F)n1C)C(=O)Nc1nccs1` (stereo not drawn), with 17.1%; and `COc1ccc(C2=NOC(C(=O)Nc3ccc4c(c3)OCO4)C2)cc1OC` (stereo not drawn), with 5.15%.
On to `COc1cc2[nH]c(=O)n(-c3ccccc3)c(=O)c2cc1OC`, for which the “hERG current change (%, negative = inhibition) at 1uM” value is recorded as 13.9%.
The figure for `S=C(NCc1ccncc1)Nc1ccc(Cl)cc1Cl` is 8.64%; for `O=C(O)c1ccccc1N(Cc1ccccc1)C(=O)COc1ccccc1` it is 8.18%; for `O=C(Cc1c[nH]c2ccccc12)NC1(C(=O)NC2CCCCC2)CCCCC1` it is -3.56%.
As for `O=C(CCCCCNC(=O)N1CCn2c1nc1ccccc12)N[C@@H](C(=O)O)c1ccccc1`, the “hERG current change (%, negative = inhibition) at 1uM” value is recorded as -3.95%.
The figure for `C=CCn1c(SCC(=O)N(CCO)CCO)nc2sc3c(c2c1=O)CCC3` is 13.5%; for `CN(Cc1ccccc1)C(=O)c1cccnc1` it is 10.5%.
Take `O=C(NC(c1ccccc1)C(Cl)(Cl)Cl)c1ccccc1` (stereo not drawn): the “hERG current change (%, negative = inhibition) at 1uM” value came out at 4.9%.
The figure for `O=C(Nc1ccc(Cl)cc1)OCCn1nnnc1C(c1ccccc1)N1CCOCC1` (stereo not drawn) is -1.81%.
For the compound `Cc1ccc(NC(=O)C2(S(=O)(=O)c3ccc(Cl)cc3)CC2)c(Br)c1`, the “hERG current change (%, negative = inhibition) at 1uM” value turned out to be 2.54%.
Then `O=C(NCc1ccccc1Cl)c1ccc(Br)o1`, with 21.7%; and `CC(=O)Nc1ccc(S(=O)(=O)NCc2ccncc2)cc1`, with -5.52%; and `CSc1ccccc1C(=O)C1CCCN(C(=O)c2csnn2)C1` (stereo not drawn), with -13.5%.
Then `Cc1oc2nc(SCC(=O)N3CCCCC3)nc(N)c2c1C`, with 10.3%; and `CCCOc1ccc(-c2csc(N)n2)cc1[N+](=O)[O-]`, with 11.1%; and `CCOC(=O)N1CCC2(CC1)C(C(=O)C13CC4CC(CC(C4)C1)C3)C2(C#N)C#N` (stereo not drawn), with 2.05%.
For the compound `CC[C@H](C)[C@H](NC(N)=O)C(=O)Nc1ccc(C)cc1`, the “hERG current change (%, negative = inhibition) at 1uM” value worked out at 8.31%.
Then `COc1ccc(OC2CCN(S(=O)(=O)c3ccccc3)CC2)cc1`, with 15.3%; and `O=C(c1cc2ccccn2n1)N1CCC2(CC1)OCCO2`, with 3.43%.
`CC1CCN(CC(=O)c2c[nH]c3ccccc23)CC1`: the “hERG current change (%, negative = inhibition) at 1uM” value is reported as -6.87%.
Then `CCOC(=O)C1CCCN(C2=NC(=O)/C(=C/c3ccc(O)c(OCC)c3)S2)C1` (stereo not drawn), with -1.27%.
Then `COCCN(C(=S)Nc1cc(C)cc(C)c1)C(C)c1cccs1` (stereo not drawn), with 10.7%.
The figure for `Cc1cccc(C)c1NC(=O)CNC(=O)CNC(=O)c1ccc2c(c1)OCO2` is 2.56%.
In the case of `CCCOc1ccc(N2C(=O)C3C(C(C)C)NC4(C(=O)c5ccccc5C4=O)C3C2=O)cc1` (stereo not drawn), the “hERG current change (%, negative = inhibition) at 1uM” value amounted to 3.12%.
Then `O=C1c2ccccc2C(=O)N1CCCCN(C(=O)c1cccc([N+](=O)[O-])c1)c1ccc(Cl)cc1`, with 3.85%; and `COc1ccccc1NC(=S)N(CCCN1CCOCC1)Cc1cn(C)c2ccccc12`, with -1.03%.
